# Over roughly 18,000 sequences, “TetR repression strength (sort-seq, GFP reporter)” has its median near 0.23; the highest 2% begin near 0.68. This is one part of the list.
# Biological target: TetR (class B, Tn10) (UniProt P04483)
# Assay: TetR repression strength (sort-seq, GFP reporter) (relative to tetO2 = 1); higher = stronger repression
# Conditions: E. coli
# How it was run: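 E. coli SIG10-MAX carried a low-copy plasmid library with eight randomized operator positions between a constitutive promoter and sfGFP, with TetR constitutively expressed. Cells grew 5 h at 37 °C in LB with 50 µg/mL chloramphenicol, then 10^6 cells were FACS-sorted into 13 fluorescence bins, each Illumina-sequenced. Repression strength is the top bin index plus one minus the read-weighted mean bin, divided by the wild-type operator value. Three independent transformations; variants with ≥30 reads in all replicates and CV ≤0.5 were averaged.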
# Chain of UniProt P04483 (P04483 whole entry): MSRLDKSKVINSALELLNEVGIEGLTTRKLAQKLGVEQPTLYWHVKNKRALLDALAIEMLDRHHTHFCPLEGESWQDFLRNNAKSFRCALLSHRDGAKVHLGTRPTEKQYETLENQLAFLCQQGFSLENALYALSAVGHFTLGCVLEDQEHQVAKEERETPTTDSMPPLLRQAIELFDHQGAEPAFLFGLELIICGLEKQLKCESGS
row,Sequence,TetR repression strength
1,TCCCTGAGAGTGCGGGAGA,0.309
2,TCCCTAGAAGTATGCGAGA,0.171
3,TCCCACATAGTTACAGAGA,0.109
4,TCCCTAATAGTTGTTGAGA,0.207
5,TCCCGCGCAGTCGATGAGA,0
6,TCCCGGTCAGTGGCTGAGA,0.659
7,TCCCTTTTAGTTGAGGAGA,0.327
8,TCCCTGCTAGTACAAGAGA,0.353
9,TCCCAAGAAGTATAGGAGA,0.262
10,TCCCAGTGAGTTAGGGAGA,0.144
11,TCCCTGGCAGTGGGAGAGA,0.11
12,TCCCGTAGAGTCGATGAGA,0.715
13,TCCCTTGTAGTCACCGAGA,0.257
14,TCCCAGAAAGTCGGCGAGA,0.173
15,TCCCTCCGAGTTATGGAGA,0.194
16,TCCCACGGAGTCGAAGAGA,0.187
17,TCCCAGGAAGTCATGGAGA,0.408
18,TCCCGTGCAGTCGGCGAGA,0.0546
19,TCCCGGCCAGTGCAAGAGA,0.214
20,TCCCCGAGAGTATTGGAGA,0.201
21,TCCCACAAAGTTGGAGAGA,0.358
22,TCCCCCGAAGTGGTAGAGA,0.382
23,TCCCAGGTAGTGGGCGAGA,0.186
24,TCCCGCGTAGTTGCAGAGA,0.0504
25,TCCCGCTCAGTGCGGGAGA,0.226
26,TCCCTGTAAGTCAGTGAGA,0.131

row,Sequence,TetR repression strength
1,TCCCAGATAGTCAACGAGA,0.324
2,TCCCTGTCAGTTCCTGAGA,0.36
3,TCCCTTATAGTGCGGGAGA,0
4,TCCCCAGCAGTGATGGAGA,0.2
5,TCCCAGGTAGTTGCCGAGA,0.111
6,TCCCCTGAAGTTCTTGAGA,0.223
7,TCCCTACTAGTGCCTGAGA,0.274
8,TCCCACGGAGTACGGGAGA,0.34
9,TCCCGGCTAGTGGACGAGA,0.182
10,TCCCGTTCAGTGTGAGAGA,0.246
11,TCCCGCAGAGTTGGGGAGA,0.39
12,TCCCGCCGAGTTGAAGAGA,0.254
13,TCCCTGTGAGTGAAGGAGA,0.3
14,TCCCTCCAAGTGTCGGAGA,0.39
15,TCCCGGACAGTGTGGGAGA,0.148
16,TCCCGGGCAGTACCCGAGA,0.106
17,TCCCGCGTAGTCGCAGAGA,0.138
18,TCCCGATAAGTTCACGAGA,0.415
19,TCCCCGGCAGTAGTGGAGA,0.131
20,TCCCAGGCAGTTTAGGAGA,0.14
21,TCCCTTACAGTTGAGGAGA,0.074
22,TCCCGGTGAGTTGGGGAGA,0.28
23,TCCCATATAGTTGGAGAGA,0.0713
24,TCCCGCTCAGTCAAGGAGA,0.351
25,TCCCTGTCAGTTCAGGAGA,0.0968
26,TCCCCTGAAGTAGCTGAGA,0.365

row,Sequence,TetR repression strength
1,TCCCAGGTAGTAGCCGAGA,0.295
2,TCCCTGCCAGTCTGCGAGA,0.24
3,TCCCGAGTAGTAGCAGAGA,0.253
4,TCCCGCGGAGTTGTCGAGA,0.221
5,TCCCCGTCAGTGACTGAGA,0.237
6,TCCCCTGCAGTCGATGAGA,0.223
7,TCCCATAAAGTTTCAGAGA,0.323
8,TCCCGTCCAGTAGACGAGA,0.27
9,TCCCAAAGAGTCGTAGAGA,0.191
10,TCCCCGCAAGTAAAGGAGA,0.207
11,TCCCATTGAGTACGTGAGA,0.12
12,TCCCTGGAAGTGTGGGAGA,0.143
13,TCCCAGGGAGTAACCGAGA,0.202
14,TCCCCGGAAGTATATGAGA,0.0317
15,TCCCCAGGAGTCAGTGAGA,0.296
16,TCCCGAGTAGTGGACGAGA,0.302
17,TCCCGTACAGTAAGAGAGA,0.36
18,TCCCATGAAGTTGTTGAGA,0.268
19,TCCCGCCCAGTGGGAGAGA,0.119
20,TCCCGGGGAGTACCAGAGA,0.117
21,TCCCTGTGAGTGGCCGAGA,0.0444
22,TCCCAACAAGTGAGTGAGA,0.42
23,TCCCGTGTAGTCATTGAGA,0.248
24,TCCCGTGTAGTAAAAGAGA,0.207
25,TCCCGCCGAGTGGCGGAGA,0.152
26,TCCCAGTTAGTCTTGGAGA,0.38

row,Sequence,TetR repression strength
1,TCCCCCATAGTATTGGAGA,0.222
2,TCCCGTCAAGTAGGTGAGA,0.118
3,TCCCATTAAGTTACCGAGA,0.331
4,TCCCAGAGAGTCAAGGAGA,0.618
5,TCCCAGAGAGTCTATGAGA,0.216
6,TCCCCGATAGTGCATGAGA,0.147
7,TCCCTCATAGTAGAGGAGA,0.216
8,TCCCGGAGAGTCCTTGAGA,0.295
9,TCCCTCTGAGTTGGCGAGA,0.191
10,TCCCCCTAAGTGCTGGAGA,0.329
11,TCCCCTGAAGTGGCGGAGA,0.275
12,TCCCGTATAGTTTATGAGA,0.0104
13,TCCCGCGTAGTGTGAGAGA,0.217
14,TCCCTGATAGTAATGGAGA,0.376
15,TCCCGTAGAGTTGCTGAGA,0.209
16,TCCCGATTAGTATGTGAGA,0.162
17,TCCCTAGTAGTAAGCGAGA,0.136
18,TCCCTTGTAGTATGGGAGA,0.21
19,TCCCTGGGAGTTCCTGAGA,0.144
20,TCCCCACTAGTATCGGAGA,0.191
21,TCCCTACAAGTAAGGGAGA,0.219
22,TCCCGCTTAGTGTAAGAGA,0.205
23,TCCCGACGAGTGGCAGAGA,0.293
24,TCCCGAAAAGTAGTGGAGA,0.131

# — a collection of fitness landscapes (doi:10.1038/s41467-024-54723-y)
